Results from the supplement of paper PMC9334596.
Values joined by “and” are separate entries in the source; they are usually repeats but may differ in a detail not shown here. Identical values can stand only once. In all, about 5,300 compounds were measured (“PER2::LUC luminescence relative to vehicle control”: median about 0.96, highest 2% from about 1.3 on). The list shows a part of the results.

Test system: mPer2Luc MEF
Test: PER2::LUC luminescence relative to vehicle control (fold of vehicle); higher = higher PER2::LUC reporter signal
Conditions: 10 µM
How it was run: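 The reported values are PER2::LUC luminescence as fold of vehicle control in mouse embryonic fibroblasts carrying the mPer2Luc reporter. Cells were seeded at ~3000 per well in 384-well plates in DMEM with 10% FBS at 37 °C and 5% CO2, and compounds were added at 10 μM 48 h later. ONE-Glo luminescence was read 24 h and 30 h after treatment.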

| SMILES | PER2::LUC luminescence (time after treatment 24 h) | PER2::LUC luminescence (time after treatment 30 h) |
| --- | --- | --- |
| CC(=O)O[C@H]1CC[C@]2(C)C3=C(CC[C@H]2C1(C)C)[C@]1(C)CC[C@H]([C@H](C)CCC=C(C)C)[C@@]1(C)CC3 | 1.11 | 1.05 |
| Nc1ncnc(Nc2ccc(Cl)cc2)n1 | 1.04 | 1.24 |
| O=C(O)c1ccccc1Nc1ccccc1 | 1.02 | 0.974 |
| CC[C@H](C)[C@H](N)C1=N[C@H](C(=O)N[C@@H](CC(C)C)C(=O)N[C@H](CCC(=O)[O-])C(=O)N[C@H](C(=O)N[C@H]2CCCCNC(=O)[C@H](CC(N)=O)NC(=O)[C@@H](CC(=O)[O-])NC(=O)[C@H](Cc3cnc[nH]3)NC(=O)[C@@H](Cc3ccccc3)NC(=O)[C@H]([C@@H](C)CC)NC(=O)[C@@H](CCCN)NC2=O)[C@@H](C)CC)CS1.[Zn+2] | 0.958 and 1.14 | 0.998 and 1.01 |
| CO[C@@H](C(=O)N1Cc2[nH]nc(NC(=O)c3ccc(N4CCN(C)CC4)cc3)c2C1)c1ccccc1 | 0.782 and 0.712 and 0.736 | 0.697 and 0.714 and 0.674 |
| CN1CCN(C2=Nc3cc(Cl)ccc3Nc3ccccc32)CC1 | 0.789 | 0.747 |
| Cc1c(Cc2ccc3ccccc3n2)c2cc(F)ccc2n1CC(=O)O | 0.991 | 0.94 |
| CCCCCCCCCCCCCCCC(=O)NCCO | 1.01 | 0.936 and 0.926 |
| CC(=O)NC[C@H]1CN(c2ccc(N3CCN(C(=O)CO)CC3)c(F)c2)C(=O)O1 | 0.974 | 1.02 |
| CC(=O)C1(O)CCC2C3CC(C)C4=CC(=O)C=CC4(C)C3(F)C(O)CC21C (centres undefined) | 0.724 | 1.1 |
| CCCN(CCc1cccs1)[C@H]1CCc2c(O)cccc2C1 | 0.913 and 0.869 | 0.933 and 0.918 |
| CC(=O)[C@H]1CC[C@H]2[C@@H]3CC=C4C[C@@H](OS(=O)(=O)O)CC[C@]4(C)[C@H]3CC[C@]12C | 0.955 | 0.936 |
| CS(=O)(=O)n1cc2c(n1)CN([C@H]1CO[C@H](c3cc(F)ccc3F)[C@@H](N)C1)C2 | 0.996 | 0.905 |
| NCC=CC(=O)O (stereo in doubt) | 1.03 | 1.05 |
| CC(C)[C@@H](O)CC[C@@H](C)[C@H]1CC[C@H]2[C@@H]3CC=C4C[C@@H](O)CC[C@]4(C)[C@H]3CC[C@]12C | 1.22 | 0.978 |
| Cc1cc(=O)n(-c2ccccc2)n1C | 1.19 | 1.03 |
| Clc1ccc(COC(Cn2ccnc2)c2ccc(Cl)cc2Cl)c(Cl)c1 (centres undefined) | 1.04 and 0.591 | 1.29 and 1.01 |
| CC(C)(C)C[C@@H]1N[C@@H](C(=O)N[C@H]2CC[C@H](O)CC2)[C@H](c2cccc(Cl)c2F)[C@]12C(=O)Nc1cc(Cl)ccc12 | 0.814 | 0.683 |
| O=C(O)c1cc(O)c2c(c1)[C@@H]([C@H]1c3cc(C(=O)O)cc(O)c3C(=O)c3c(O[C@@H]4O[C@H](CO)[C@@H](O)[C@H](O)[C@H]4O)cccc31)c1cccc(O[C@@H]3O[C@H](CO)[C@@H](O)[C@H](O)[C@H]3O)c1C2=O | 0.739 | 0.72 |
| O=c1c2ccccc2oc2ccccc12 | 1.07 | 1.15 |
| CC1(C2CCCC2)Cc2cc(OCC(=O)O)c(Cl)c(Cl)c2C1=O (centres undefined) | 1 | 0.896 |
| CO[C@H]1O[C@@H]2O[C@@]3(C)CC[C@H]4[C@H](C)CC[C@@H]([C@H]1C)[C@@]24OO3 | 1.22 | 1.15 |
| N#C/C(=C\c1ccc(O)c(O)c1)C(=O)c1ccc(O)c(O)c1 | 0.905 | 0.841 |
| Cn1ncc(Cl)c1-c1cc(C(=O)N[C@H](CN)Cc2cccc(F)c2)sc1Cl | 0.31 | 0.335 |
| CCOc1ccc2nc(SCCN3CCOCC3)[nH]c2c1 | 1.06 | 1.08 |
| NC12CC3CC(CC(C3)C1)C2 | 0.972 | 0.812 |

| SMILES | PER2::LUC luminescence (time after treatment 24 h) | PER2::LUC luminescence (time after treatment 30 h) |
| --- | --- | --- |
| NCC(=O)O | 0.992 | 0.878 |
| Cc1ccc(-c2ncc(Cl)cc2-c2ccc(S(C)(=O)=O)cc2)cn1 | 0.814 | 0.983 |
| OC[C@H]1O[C@@H](c2ccc(F)c(Cc3cc4ccccc4s3)c2)[C@H](O)[C@@H](O)[C@@H]1O | 0.941 | 0.958 |
| CCCc1c(OCCCCc2nnn[nH]2)ccc(C(C)=O)c1O | 0.981 | 0.977 |
| CC1CCc2c(N3CCC(O)CC3)c(F)cc3c(=O)c(C(=O)O)cn1c23 (centres undefined) | 1.01 | 1.09 |
| COc1cc2c(c(OC)c1OC)-c1c(cc(OC)c(OC)c1OC)CC(C)C(C)C2 (centres undefined) | 0.948 | 1.09 |
| CC(=O)N(O)CCCCCNC(=O)CCC(=O)N(O)CCCCCNC(=O)CCC(=O)N(O)CCCCCN | 0.881 | 0.921 |
| NC(Cc1cccc(-c2ccccc2CP(=O)(O)O)c1)C(=O)O (centres undefined) | 0.89 | 0.879 |
| O=S(=O)(c1cccc2cnccc12)N1CCNCC1 | 1.01 | 0.998 |
| C=CC(C)(O)CCC1C(=C)CC(O)C2C(C)(C)CCCC12C (centres undefined) | 0.928 | 0.914 |
| N[C@H](CO)C(=O)O | 0.97 | 0.891 |
| CCN[C@H]1C[C@H](C)S(=O)(=O)c2sc(S(N)(=O)=O)cc21 | 0.986 | 0.988 |
| CCNC(=O)CC[C@H](N)C(=O)O | 1.03 and 1.08 | 0.981 and 1.06 |
| C[N+](C)(C)CCCCCNCC12CC3CC(CC(C3)C1)C2 | 0.905 | 0.834 |
| C[N+]1(C)CCC[C@H]1C(=O)[O-] | 1.05 | 1.1 |
| CC(C)/N=c1\cc2n(-c3ccc(Cl)cc3)c3ccccc3nc-2cc1Nc1ccc(Cl)cc1 | 0.807 | 1.07 |
| O=C1Cc2cc(CCN3CCN(c4nsc5ccccc45)CC3)c(Cl)cc2N1 | 0.873 and 0.874 | 0.826 and 0.719 |
| CCCCC1OC(=O)C2=CCCCC21 (centres undefined) | 1.01 | 0.986 |
| CC(=O)Nc1ccc(NC(=S)NC(=O)c2ccc(C(C)(C)C)cc2)cc1 | 0.812 | 0.973 |
| O=C(NOCCO)c1ccc2cncn2c1Nc1ccc(I)cc1F | 0.183 | 0.126 |
| CCOc1cc(C(=O)N2CCC(N3CCN(C)CC3)CC2)ccc1Nc1ncc2c(n1)N(C1CCCC1)c1ccccc1C(=O)N2C | 0.067 | 0.083 |
| CCOC(=O)[C@]12CC1/C(=N\O)c1ccccc1O2 (some centres undefined) | 0.949 | 0.99 |
| O=c1cc(-c2ccc(O)c(O)c2)oc2cc(O)cc(O)c12 | 1.01 | 1.1 |
| O=C(Cc1ccc(-c2ccc(OCCN3CCOCC3)cc2)cn1)NCc1ccccc1 | 0.341 | 0.546 |
| CN1CC(=O)NC1=N | 0.861 | 1.26 |
| Nc1ncn([C@H]2C[C@H](O)[C@@H](CO)O2)c(=O)n1 | 0.983 and 0.918 and 0.511 | 1 and 0.868 and 0.744 |

| SMILES | PER2::LUC luminescence (time after treatment 24 h) | PER2::LUC luminescence (time after treatment 30 h) |
| --- | --- | --- |
| CC(C)(C(=O)c1cccnc1)c1cccnc1 | 1.21 | 1.06 |
| COC(=O)Nc1ccc(-c2nc(N3CCOCC3)c3cnn(C4CCN(Cc5cccnc5)CC4)c3n2)cc1 | 0.841 | 0.77 |
| C[C@H](NC(=O)Cc1cc(F)cc(F)c1)C(=O)N[C@H](C(=O)OC(C)(C)C)c1ccccc1 [Gamma-SECRETASE INHIBITOR IX] | 0.938 | 0.994 |
| CN1CCc2cccc3c2[C@H]1Cc1ccc(O)c(O)c1-3 | 1.07 and 0.931 and 1.1 | 0.809 and 0.874 and 1.05 |
| CNC(CC(=O)O)C(=O)O (centres undefined) | 1.01 | 1.04 |
| CN1C2=CC(=O)/C(=N\NC(N)=O)C=C2CC1S(=O)(=O)O (centres undefined) | 0.898 | 0.938 |
| CCCCC/C=C\CCC(=O)N[C@H]1[C@H](Oc2c3cc4cc2Oc2ccc(cc2Cl)[C@@H](O[C@@H]2O[C@H](CO)[C@@H](O)[C@H](O)[C@H]2NC(C)=O)[C@@H]2NC(=O)[C@H](NC(=O)[C@@H]4NC(=O)[C@H]4NC(=O)[C@@H](Cc5ccc(c(Cl)c5)O3)NC(=O)[C@H](N)c3ccc(O)c(c3)Oc3cc(O)cc4c3)c3ccc(O)c(c3)-c3c(O[C@H]4O[C@H](CO)[C@@H](O)[C@H](O)[C@@H]4O)cc(O)cc3[C@@H](C(=O)O)NC2=O)O[C@H](CO)[C@@H](O)[C@@H]1O | 0.886 | 0.953 |
| Cc1cc(Nc2ccc(NC(=O)c3ccc(Nc4ccnc5ccccc45)cc3)cc2)nc(N)n1 | 0.945 | 1 |
| CCC(Cc1c(I)cc(I)c(N)c1I)C(=O)O (centres undefined) | 0.46 and 0.66 | 0.986 and 0.701 |
| CCC(NC(C)C)C(O)c1ccc(O)c(O)c1 (centres undefined) | 1.1 and 0.981 | 0.91 and 0.843 |
| C/C(=N\NC(=O)C(NC(=O)c1ccccc1)c1n[nH]c(=O)c2ccccc12)c1cccc(Br)c1 (centres undefined) | 1.04 | 0.86 |
| CN1CCN(C2=Cc3ccccc3Oc3ccc(Cl)cc32)CC1 | 0.747 | 0.689 |
| C[C@]12CC[C@@H]3c4ccc(O)cc4CC[C@H]3[C@@H]1CC[C@@H]2OC(=O)CCC1CCCC1 | 1.07 and 0.825 | 1.27 and 0.92 |
| C[C@H](NC(=O)[C@@H](O)c1cc(F)cc(F)c1)C(=O)N[C@@H]1C(=O)N(C)c2ccccc2-c2ccccc21 | 0.983 | 0.911 |
| CC(C)N(CCCNC(=O)Nc1ccc(C(C)(C)C)cc1)C[C@H]1O[C@@H](n2ccc3c(N)ncnc32)[C@H](O)[C@@H]1O | 1.05 and 1.09 | 1.03 and 0.969 |
| O=C1C=C2CC3(O)COc4c(ccc(O)c4O)C3=C2C=C1O (centres undefined) | 0.962 | 0.875 |
| COc1ccc2[nH]c(I)c(CCNC(C)=O)c2c1 | 0.76 | 0.916 |
| C[C@@H]1[C@H](O)[C@@H](C)/C=C/C=C/C=C/C=C/C=C/C=C/C=C/[C@H](O[C@@H]2O[C@H](C)[C@@H](O)[C@H](N)[C@@H]2O)C[C@@H]2O[C@](O)(C[C@@H](O)C[C@@H](O)[C@H](O)CC[C@@H](O)C[C@@H](O)CC(=O)O[C@H]1C)C[C@H](O)[C@H]2C(=O)O | 0.888 | 0.845 |
| O=C(O)CCCCN(CCc1ccccc1OCc1ccc(CCc2ccccc2)cc1)Cc1ccc(C(=O)O)cc1 | 1.01 | 0.893 |
| CO[C@@]1(NC(=O)CSCC#N)C(=O)N2C(C(=O)O)=C(CSc3nnnn3C)CS[C@@H]21 | 0.792 | 0.916 |
| CC(=O)O[C@H]1CC[C@]2(C)C3CC[C@@]4(C)[C@H](C5CC(C6OC6(C)C)OC5O)CC[C@]4(C)C3=CC[C@H]2C1(C)C (some centres undefined) | 1.14 | 1.08 |
| CC(C)NC[C@H](O)COc1ccc(CC(N)=O)cc1 | 0.918 | 1.07 |
| O=c1cc(N2CCOCC2)oc2c1ccc1ccccc12 | 1.03 | 1.01 |
| CCOC(=O)C(C)(C)Oc1ccc(Cl)cc1 | 0.977 | 0.81 |
| c1cnc2c(c1)ccc1cccnc12 | 0.463 | 0.41 |
